Inconclusive results, whose numbers are uncertain, are shown with a selection of clear calls. For some of these results: Where the call is inconclusive, the potency comes from a doubtful curve fit. Active and inactive are the calls of the source. Unless noted, the call rests on the fitted dose curve; in most records, active means well fitted curve in the direction sought with a large enough effect in the repeat runs; inconclusive means weak or mixed curves; inactive means no such curve, though single readings can be large; an effect the other way counts as inactive or inconclusive.
Assays:
[1] = qHTS assay for small molecule agonists of the p53 signaling pathway (AID 651631; calls by dose curve; further: potency means the concentration at half of the fitted maximal effect; nearly all actives have a fitted effect of over 15% in size); details: HCT-116 p53RE-bla reporter, beta-lactamase FRET ratio, 16 h; activation: at 73.3 µM (top of the series) unless noted
Summary of the method: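 HCT-116 cells carrying a beta-lactamase reporter under p53 response elements were dosed with compound for 16 h at 37 °C. LiveBLAzer B/G FRET substrate was then added for 2 h at room temperature, and fluorescence intensity was read to detect pathway agonism.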

[2] = qHTS assay for small molecules that induce genotoxicity in human embryonic kidney cells expressing luciferase-tagged ATAD5 - cell viability (AID 651634; calls by dose curve; further: potency means the concentration at half of the fitted maximal effect; nearly all actives have a fitted effect of over 25% in size)
Summary of the method: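 HEK293T cells carrying luciferase-tagged ATAD5, 2,000 cells/well, exposed to compound for 15.5 hr at 37C. Viability read as live-cell protease activity by CellTiter-Fluor fluorescence after 30 min at 37C.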

[3] = target: Glucocorticoid receptor (Homo sapiens) (UniProt P04150); experiment: qHTS assay to identify small molecule antagonists of the glucocorticoid receptor (GR) signaling pathway (AID 720692; active means well fitted inhibition curve with a large enough effect in the signal ratio in the repeat runs, not every such curve was filed as active; inconclusive means weak or mixed curves, or effect the other way; inactive means no such curve, though single readings can be large or run the other way; the % refers to the signal ratio; further: potency means the concentration at half of the fitted maximal effect); details: GR-bla HeLa, beta-lactamase FRET ratio, dexamethasone-stimulated, 18 h; activity change, negative = inhibition: at 58.5 µM (top of the series) unless noted
Sequence of UniProt P04150 (P04150 whole entry, looked up): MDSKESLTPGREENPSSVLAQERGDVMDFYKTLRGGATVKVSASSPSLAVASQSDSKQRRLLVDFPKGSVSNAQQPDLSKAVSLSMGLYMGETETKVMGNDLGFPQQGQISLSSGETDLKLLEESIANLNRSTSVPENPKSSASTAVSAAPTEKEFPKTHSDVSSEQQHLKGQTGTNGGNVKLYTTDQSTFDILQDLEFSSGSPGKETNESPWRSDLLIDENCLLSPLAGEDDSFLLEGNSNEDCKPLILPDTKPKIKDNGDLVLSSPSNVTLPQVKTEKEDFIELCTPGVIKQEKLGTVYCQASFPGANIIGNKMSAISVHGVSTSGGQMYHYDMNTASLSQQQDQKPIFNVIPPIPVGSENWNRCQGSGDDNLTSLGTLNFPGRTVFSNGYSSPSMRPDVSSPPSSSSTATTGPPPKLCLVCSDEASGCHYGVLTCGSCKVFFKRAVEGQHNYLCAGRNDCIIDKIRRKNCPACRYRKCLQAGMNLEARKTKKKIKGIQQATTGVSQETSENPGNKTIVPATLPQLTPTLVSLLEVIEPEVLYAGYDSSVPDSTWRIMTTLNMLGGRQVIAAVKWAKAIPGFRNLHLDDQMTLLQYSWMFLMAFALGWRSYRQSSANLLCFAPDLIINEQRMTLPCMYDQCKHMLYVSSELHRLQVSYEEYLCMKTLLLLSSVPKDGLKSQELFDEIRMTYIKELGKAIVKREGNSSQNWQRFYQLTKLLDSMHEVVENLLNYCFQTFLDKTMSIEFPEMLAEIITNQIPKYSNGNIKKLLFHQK
Summary of the method: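 GR-bla HeLa cells carrying a GRE-driven beta-lactamase reporter received compound after 4 h plating, then dexamethasone (5 nM final). After 18 h at 37C, the FRET substrate was loaded for 2 h at room temperature and fluorescence read.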

[4] = qHTS assay to identify small molecule antagonists of the glucocorticoid receptor (GR) signaling pathway - cell viability counter screen (AID 720693); details: GR-bla HeLa viability, CellTiter-Glo luminescence, 18 h, with 5 nM dexamethasone present; viability change, negative = cytotoxic: at 58.5 µM (top of the series); further: nearly all actives have a fitted effect of over 55% in size; further: potency means the concentration at half of the fitted maximal effect; on viability change, negative = cytotoxic: on the % scale 0 is the no-effect control and ±100 the full control effect
[5] = qHTS assay for identifying genotoxic compounds that show differential cytotoxicity against isogenic chicken DT40 cell lines with known DNA damage response pathways - Rad54/Ku70 mutant cell line (AID 743015); details: DT40 Rad54/Ku70 mutant viability, CellTiter-Glo, 40 h; activity change, negative = cytotoxicity: at 66.8 µM (top of the series) unless noted; further: potency means the concentration at half of the fitted maximal effect; nearly all actives have a fitted effect of over 60% in size
[6] = qHTS assay to identify small molecule antagonists of the androgen receptor (AR) signaling pathway - cell viability counter screen (AID 743033; further: potency means the concentration at half of the fitted maximal effect; nearly all actives have a fitted effect of over 45% in size); details: AR-bla HEK293 viability, CellTiter-Glo luminescence, 16 h; activity change, negative = cytotoxicity: at 58.5 µM (top of the series) unless noted
[7] = qHTS assay to identify small molecule antagonists of the androgen receptor (AR) signaling pathway using the MDA cell line - cell viability counter screen (AID 743041; further: potency means the concentration at half of the fitted maximal effect; nearly all actives have a fitted effect of over 45% in size); details: MDA-kb2 viability, CellTiter-Fluor, 16 h, cells co-treated with R1881 androgen agonist; viability change, negative = cytotoxic: at 70.3 µM (top of the series)
Summary of the method: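 Cells were plated at 3,000 per well and left 5 h. Compounds in DMSO were then pinned in, followed by R1881. After 16 h at 37C, CellTiter-Fluor fluorescence gave viability.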

[8] = qHTS assay to identify small molecule antagonists of the thyroid receptor (TR) signaling pathway - cell viability counter screen (AID 743064); details: GH3.TRE-Luc viability, CellTiter-Fluor, 24 h; activity change, negative = cytotoxic: at 70.3 µM (top of the series) unless noted; further: potency means the concentration at half of the fitted maximal effect; nearly all actives have a fitted effect of over 50% in size
Summary of the method: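 GH3.TRE-Luc rat pituitary cells dosed after 4 hr plating, co-stimulated with T3 at 1 nM final, incubated 23.5 h at 37 C. Viability measured in the same wells by CellTiter-Fluor fluorescence after 30 min further at 37 C.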

[9] = target: Estrogen receptor (Homo sapiens) (UniProt P03372); experiment: qHTS assay to identify small molecule antagonists of the estrogen receptor alpha (ER-alpha) signaling pathway (AID 743069; active means well fitted curve in the direction sought with a large enough effect in the signal ratio in the repeat runs, not every such curve was filed as active; inconclusive means weak or mixed curves, or effect the other way; inactive means no such curve, though single readings can be large or run the other way; the % refers to the signal ratio; further: potency means the concentration at half of the fitted maximal effect); details: HEK293 ER-alpha-UAS-bla, beta-lactamase ratio, antagonist mode; activity, negative = inhibition: at 69.4 µM (top of the series) unless noted
Sequence of UniProt P03372 (P03372 whole entry, looked up): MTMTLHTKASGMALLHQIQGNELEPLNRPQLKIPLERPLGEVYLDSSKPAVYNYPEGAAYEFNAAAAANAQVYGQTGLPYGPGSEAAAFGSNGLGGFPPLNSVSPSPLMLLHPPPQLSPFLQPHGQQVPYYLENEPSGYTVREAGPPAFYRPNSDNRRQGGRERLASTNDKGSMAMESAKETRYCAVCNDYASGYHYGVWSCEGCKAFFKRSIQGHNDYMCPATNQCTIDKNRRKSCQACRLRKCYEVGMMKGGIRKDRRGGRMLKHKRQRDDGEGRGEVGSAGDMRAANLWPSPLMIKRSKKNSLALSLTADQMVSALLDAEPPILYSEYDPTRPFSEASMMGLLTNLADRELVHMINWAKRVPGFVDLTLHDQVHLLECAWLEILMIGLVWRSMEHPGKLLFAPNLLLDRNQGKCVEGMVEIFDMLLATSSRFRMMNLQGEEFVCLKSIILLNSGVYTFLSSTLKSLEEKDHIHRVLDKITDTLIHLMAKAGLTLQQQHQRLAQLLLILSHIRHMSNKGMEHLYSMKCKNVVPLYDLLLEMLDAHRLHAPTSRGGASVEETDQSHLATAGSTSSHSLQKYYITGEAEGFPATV
Summary of the method: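 ER-alpha-UAS-bla GripTite HEK293 line; 2% charcoal-stripped FBS overnight; plated, 4 hr 37C/5% CO2; cpd in DMSO + 17beta-estradiol, 18 hr 37C; LiveBLAzer B/G FRET substrate 2 hr RT; fluorescence intensity.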

[10] = target: Estrogen receptor (Homo sapiens) (UniProt P03372); experiment: qHTS assay to identify small molecule agonists of the estrogen receptor alpha (ER-alpha) signaling pathway using the BG1 cell line (AID 743079); details: BG1Luc4E2 cells, ERE-luciferase agonist, 22 h; activation: at 70.3 µM (top of the series) unless noted; further: potency means the concentration at half of the fitted maximal effect; nearly all actives have a fitted effect of over 20% in size
[11] = qHTS assay to identify small molecule antagonists of the estrogen receptor alpha (ER-alpha) signaling pathway using the BG1 cell line (AID 743080; calls by dose curve;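 further: BG1 cells stimulated with 17beta-estradiol alongside compound; nearly all actives have a fitted effect of over 25% in size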; further: potency means the concentration at half of the fitted maximal effect; on activity change, negative = inhibition: on the % scale 0 is the no-effect control and ±100 the full control effect); details: BG1Luc4E2 ERE-luciferase antagonist mode, luminescence; activity change, negative = inhibition: at 70.3 µM (top of the series) unless noted
Summary of the method: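 BG1-Luc-4E2 cells (endogenous full-length ER-alpha, stable 4×ERE-luciferase) were starved 5 days in phenol-red-free medium with 10% charcoal-stripped FBS, plated 24 h, then given compound plus 17beta-estradiol for 21.5 h at 37 C; ONE-Glo luminescence read after 30 min.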

[12] = qHTS assay to identify small molecule antagonists of the estrogen receptor alpha (ER-alpha) signaling pathway using the BG1 cell line - cell viability counter screen (AID 743081); details: BG1Luc4E2 viability, CellTiter-Fluor, 22 h; activity change, negative = cytotoxicity: at 70.3 µM (top of the series) unless noted;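 further: compound given together with 17beta-estradiol as the ER stimulus; potency means the concentration at half of the fitted maximal effect; nearly all actives have a fitted effect of over 45% in size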
[13] = qHTS assay to identify aromatase inhibitors - cell viability counter screen (AID 743084); details: MCF-7 aro ERE viability, CellTiter-Fluor, 24 h; activity change, negative = cytotoxicity: at 70.3 µM (top of the series) unless noted;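 further: cells stimulated with testosterone during compound exposure; potency means the concentration at half of the fitted maximal effect; nearly all actives have a fitted effect of over 55% in size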
[14] = target: Peroxisome proliferator-activated receptor gamma (Homo sapiens) (UniProt P37231); experiment: qHTS assay to identify small molecule agonists of the peroxisome proliferator-activated receptor gamma (PPARg) signaling pathway (AID 743094; active means well fitted activation curve with a large enough effect in the signal ratio in the repeat runs, not every such curve was filed as active; inconclusive means weak or mixed curves, or effect the other way; inactive means no such curve, though single readings can be large or run the other way; the % refers to the signal ratio; further: on the % scale 0 is the no-effect control and ±100 the full control effect); details: HEK293H PPARg-UAS-bla, beta-lactamase FRET ratio, 17 h; activation: at 57 µM (top of the series) unless noted
Sequence of UniProt P37231 (P37231 whole entry, looked up): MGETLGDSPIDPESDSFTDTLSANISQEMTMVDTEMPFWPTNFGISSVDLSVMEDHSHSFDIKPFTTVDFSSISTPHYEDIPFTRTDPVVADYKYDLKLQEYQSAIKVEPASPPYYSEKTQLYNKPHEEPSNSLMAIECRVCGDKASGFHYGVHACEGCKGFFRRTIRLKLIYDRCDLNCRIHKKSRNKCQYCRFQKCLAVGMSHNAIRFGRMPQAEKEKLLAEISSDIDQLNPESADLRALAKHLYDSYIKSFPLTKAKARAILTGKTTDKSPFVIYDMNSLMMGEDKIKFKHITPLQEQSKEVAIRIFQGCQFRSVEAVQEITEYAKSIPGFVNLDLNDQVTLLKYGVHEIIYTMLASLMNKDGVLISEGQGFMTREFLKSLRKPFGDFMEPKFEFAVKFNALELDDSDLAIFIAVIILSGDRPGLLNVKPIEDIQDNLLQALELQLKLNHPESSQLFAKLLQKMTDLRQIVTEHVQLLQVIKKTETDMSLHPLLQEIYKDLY
Summary of the method: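 GeneBLAzer PPARg UAS-bla HEK293H cells were plated, rested 5 h, then exposed to compounds for 17 h at 37C. Beta-lactamase activity was read by LiveBLAzer B/G FRET substrate fluorescence after 1 h at room temperature.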

[15] = qHTS assay for small molecule disruptors of the mitochondrial membrane potential (AID 720635); details: HepG2 mitochondrial membrane potential, Mito-MPS dye ratio; ratio activity, negative = MMP loss: at 83.2 µM (top of the series) unless noted; further: potency means the concentration at half of the fitted maximal effect
Summary of the method: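 Mitochondrial membrane potential tracked with Mito-MPS dye, red aggregates (ex 540/em 590 nm) against green monomers (ex 490/em 535 nm). Compound treatment 1 hr at 37C, dye 30 min in HepG2.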

[16] = qHTS assay for identifying genotoxic compounds that show differential cytotoxicity against isogenic chicken DT40 cell lines with known DNA damage response pathways - wild type cell line (AID 743012); details: DT40 wild type chicken cells viability, CellTiter-Glo, 40 h; activity change, negative = cytotoxicity: at 68.4 µM (top of the series) unless noted; further: potency means the concentration at half of the fitted maximal effect; nearly all actives have a fitted effect of over 60% in size
Summary of the method: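 Wild-type DT40 cells (300/well) exposed to compounds for 40 hours at 37 C/5% CO2. Viability read by CellTiter-Glo luminescence after 30 min at room temperature.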

[17] = qHTS assay to identify small molecule antagonists of the thyroid receptor (TR) signaling pathway (AID 743065); further: potency means the concentration at half of the fitted maximal effect; nearly all actives have a fitted effect of over 55% in size
Summary of the method: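 Antagonism measured as loss of luciferase signal in GH3 cells stably carrying a TRE-luciferase reporter, co-treated with compound and T3 (1 nM final) for 23.5 h at 37 C. Viability was read in the same well by CellTiter-Fluor.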

[18] = test system: thyroid hormone receptor (rat, GH3 cells); experiment: qHTS assay to identify small molecule agonists of the thyroid receptor (TR) signaling pathway (AID 743066; calls by dose curve; further: on the % scale 0 is the no-effect control and ±100 the full control effect); details: GH3.TRE-Luc cells, TR agonist luciferase, 24 h; activation: at 83.9 µM (top of the series) unless noted
[19] = qHTS assay to identify small molecule that activate the aryl hydrocarbon receptor (AhR) signaling pathway - cell viability counter screen (AID 743086); further: potency means the concentration at half of the fitted maximal effect; nearly all actives have a fitted effect of over 45% in size
Summary of the method: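 Cytotoxicity counter screen: CellTiter-Fluor signal (30 min, 37 C) in 4000 HepG2 cells/well carrying the DRE-luciferase reporter, following 24 h compound exposure at 37 C.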
Tags describe the fitted curve by direction and shape or compound fluorescence and quenching.

C=CCNC1=C2C[C@@H](C)C[C@H](OC)[C@H](O)[C@@H](C)/C=C(\C)[C@H](OC(N)=O)[C@@H](OC)/C=C\C=C(/C)C(=O)NC(=CC1=O)C2=O
active: Potency [1] 0.168 µM | Potency [5] 0.376 µM | Potency [11] 0.237 µM
inconclusive: Potency [2] 7.5 µM [falling, partial curve] | Potency [3] 0.0301 µM [rising, full curve] | Potency [4] 0.19 µM [cytotoxic, full curve] | Potency [6] 0.239 µM [cytotoxic, full curve, poor fit] | Potency [7] 0.124 µM [cytotoxic, partial curve, poor fit] | Potency [8] 13.3 µM [cytotoxic, partial curve, poor fit] | Potency [9] 12 µM [fluorescent] | Potency [10] 0.106 µM [inhibitor, full curve] | Potency [12] 33.5 µM [cytotoxic, partial curve] | Potency [13] 26.6 µM [cytotoxic, partial curve, poor fit] | activation [14] -4.79%

CCN(CC)CCC(=O)N1c2ccccc2Sc2ccc(C(F)(F)F)cc21
active: Potency [3] 23.9 µM | Potency [16] 5.96 µM | Potency [17] 26.6 µM
inactive: Potency [4] | Potency [11]
inconclusive: Potency [1] 15 µM [activator, partial curve, poor fit] | Potency [15] 4.22 µM [activator] | Potency [7] 33.5 µM [cytotoxic, single point] | activation [18] -7.15% [phenotype inactive] | Potency [10] 26.6 µM [inhibitor, partial curve] | Potency [19] 33.5 µM [falling, single point]

Source: PubChem BioAssay (Tox21)
